Counter-ions that a name gives are not always drawn. In all, about 1,900 compounds were measured (“cell viability of compound + 1 nM pemigatinib relative to pemigatinib-only (DMSO) wells”: median about 0.95, lowest 2% from about 0.22 on). The list shows a part of the results.
Tested on: PDC-DUC18828
Assay: cell viability of compound + 1 nM pemigatinib relative to pemigatinib-only (DMSO) wells (fraction); PDC-DUC18828 is a patient-derived cholangiocarcinoma cell line; higher = less growth inhibition
Conditions: first compound 1 µM; pemigatinib concentration 1 nM; 72 h
Description: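 Selleck Bioactive library screen in the patient-derived FGFR2 fusion-positive ICC cell line PDC-DUC18828 (500 cells/well). Each compound was tested at 1 uM with 1 nM pemigatinib, in triplicate, for 72 h. Viability was read by CellTiter-Glo and normalised to plate DMSO controls. Value is the paper's averaged normalised viability.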

Structure (SMILES)	cell viability
Cc1c(Cc2ccc3ccccc3n2)c2cc(F)ccc2n1CC(=O)O + CCN1C(=O)N(c2c(F)c(OC)cc(OC)c2F)Cc2cnc3[nH]c(CN4CCOCC4)cc3c21 [pemigatinib]	0.884
CN1CCN(C2=Nc3cc(Cl)ccc3Nc3ccccc32)CC1 [Clozapine] + CCN1C(=O)N(c2c(F)c(OC)cc(OC)c2F)Cc2cnc3[nH]c(CN4CCOCC4)cc3c21 [pemigatinib]	0.974
CO[C@@H](C(=O)N1Cc2[nH]nc(NC(=O)c3ccc(N4CCN(C)CC4)cc3)c2C1)c1ccccc1 + CCN1C(=O)N(c2c(F)c(OC)cc(OC)c2F)Cc2cnc3[nH]c(CN4CCOCC4)cc3c21 [pemigatinib]	0.554
C[C@H](NC(=O)[C@@H](O)c1cc(F)cc(F)c1)C(=O)N[C@@H]1C(=O)N(C)c2ccccc2-c2ccccc21 + CCN1C(=O)N(c2c(F)c(OC)cc(OC)c2F)Cc2cnc3[nH]c(CN4CCOCC4)cc3c21 [pemigatinib]	0.992
C[C@]12CC[C@@H]3c4ccc(O)cc4CC[C@H]3[C@@H]1CC[C@@H]2OC(=O)CCC1CCCC1 [Estradiol Cypionate] + CCN1C(=O)N(c2c(F)c(OC)cc(OC)c2F)Cc2cnc3[nH]c(CN4CCOCC4)cc3c21 [pemigatinib]	0.869
CC(C)N(CCCNC(=O)Nc1ccc(C(C)(C)C)cc1)C[C@H]1O[C@@H](n2ccc3c(N)ncnc32)[C@H](O)[C@@H]1O + CCN1C(=O)N(c2c(F)c(OC)cc(OC)c2F)Cc2cnc3[nH]c(CN4CCOCC4)cc3c21 [pemigatinib]	0.914
CNC(CC(=O)O)C(=O)O [NMDA (N-Methyl-D-aspartic acid)] + CCN1C(=O)N(c2c(F)c(OC)cc(OC)c2F)Cc2cnc3[nH]c(CN4CCOCC4)cc3c21 [pemigatinib]	0.966
C[C@H](NC(=O)Cc1cc(F)cc(F)c1)C(=O)N[C@H](C(=O)OC(C)(C)C)c1ccccc1 + CCN1C(=O)N(c2c(F)c(OC)cc(OC)c2F)Cc2cnc3[nH]c(CN4CCOCC4)cc3c21 [pemigatinib]	1.02
Cc1cc(Nc2ccc(NC(=O)c3ccc(Nc4ccnc5ccccc45)cc3)cc2)nc(N)n1 + CCN1C(=O)N(c2c(F)c(OC)cc(OC)c2F)Cc2cnc3[nH]c(CN4CCOCC4)cc3c21 [pemigatinib]	0.965
CN1C2=CC(=O)/C(=N\NC(N)=O)C=C2CC1S(=O)(=O)O (stereo unspecified) [Carbazochrome sodium sulfonate (AC-17)] + CCN1C(=O)N(c2c(F)c(OC)cc(OC)c2F)Cc2cnc3[nH]c(CN4CCOCC4)cc3c21 [pemigatinib]	0.918
O=C1Cc2cc(CCN3CCN(c4nsc5ccccc45)CC3)c(Cl)cc2N1 [Ziprasidone HCl] + CCN1C(=O)N(c2c(F)c(OC)cc(OC)c2F)Cc2cnc3[nH]c(CN4CCOCC4)cc3c21 [pemigatinib]	0.956
CC(C)/N=c1\cc2n(-c3ccc(Cl)cc3)c3ccccc3nc-2cc1Nc1ccc(Cl)cc1 [Clofazimine] + CCN1C(=O)N(c2c(F)c(OC)cc(OC)c2F)Cc2cnc3[nH]c(CN4CCOCC4)cc3c21 [pemigatinib]	0.907
O=C(Cc1ccc(-c2ccc(OCCN3CCOCC3)cc2)cn1)NCc1ccccc1 + CCN1C(=O)N(c2c(F)c(OC)cc(OC)c2F)Cc2cnc3[nH]c(CN4CCOCC4)cc3c21 [pemigatinib]	0.233
Nc1ncn([C@H]2C[C@H](O)[C@@H](CO)O2)c(=O)n1 [Decitabine] + CCN1C(=O)N(c2c(F)c(OC)cc(OC)c2F)Cc2cnc3[nH]c(CN4CCOCC4)cc3c21 [pemigatinib]	0.838
O=c1cc(-c2ccc(O)c(O)c2)oc2cc(O)cc(O)c12 [Luteolin] + CCN1C(=O)N(c2c(F)c(OC)cc(OC)c2F)Cc2cnc3[nH]c(CN4CCOCC4)cc3c21 [pemigatinib]	1.01
CC(=O)Nc1ccc(NC(=S)NC(=O)c2ccc(C(C)(C)C)cc2)cc1 [Tenovin-1] + CCN1C(=O)N(c2c(F)c(OC)cc(OC)c2F)Cc2cnc3[nH]c(CN4CCOCC4)cc3c21 [pemigatinib]	0.987
CCOc1cc(C(=O)N2CCC(N3CCN(C)CC3)CC2)ccc1Nc1ncc2c(n1)N(C1CCCC1)c1ccccc1C(=O)N2C + CCN1C(=O)N(c2c(F)c(OC)cc(OC)c2F)Cc2cnc3[nH]c(CN4CCOCC4)cc3c21 [pemigatinib]	0.958
O=C(NOCCO)c1ccc2cncn2c1Nc1ccc(I)cc1F + CCN1C(=O)N(c2c(F)c(OC)cc(OC)c2F)Cc2cnc3[nH]c(CN4CCOCC4)cc3c21 [pemigatinib]	0.512

Structure (SMILES)	cell viability
NC(=O)Cc1cccc(C(=O)c2ccccc2)c1N [Nepafenac] + CCN1C(=O)N(c2c(F)c(OC)cc(OC)c2F)Cc2cnc3[nH]c(CN4CCOCC4)cc3c21 [pemigatinib]	0.951
C[C@H]1COC2=C1C(=O)C(=O)c1c2ccc2c1CCCC2(C)C [Cryptotanshinone] + CCN1C(=O)N(c2c(F)c(OC)cc(OC)c2F)Cc2cnc3[nH]c(CN4CCOCC4)cc3c21 [pemigatinib]	0.877
CN(C)CC[C@H](CSc1ccccc1)Nc1ccc(S(=O)(=O)NC(=O)c2ccc(N3CCN(Cc4ccccc4-c4ccc(Cl)cc4)CC3)cc2)cc1[N+](=O)[O-] + CCN1C(=O)N(c2c(F)c(OC)cc(OC)c2F)Cc2cnc3[nH]c(CN4CCOCC4)cc3c21 [pemigatinib]	0.742
CC[C@H]1OC(=O)[C@H](C)[C@@H](O[C@H]2C[C@@](C)(OC)[C@@H](O)[C@H](C)O2)[C@H](C)[C@@H](O[C@@H]2O[C@H](C)C[C@H](N(C)C)[C@H]2O)[C@](C)(OC)C[C@@H](C)C(=O)[C@H](C)[C@@H](O)[C@]1(C)O [Clarithromycin] + CCN1C(=O)N(c2c(F)c(OC)cc(OC)c2F)Cc2cnc3[nH]c(CN4CCOCC4)cc3c21 [pemigatinib]	0.946
O=[N+]([O-])c1ccc2c(c1)S(=O)(=O)C=C2 [Stattic] + CCN1C(=O)N(c2c(F)c(OC)cc(OC)c2F)Cc2cnc3[nH]c(CN4CCOCC4)cc3c21 [pemigatinib]	0.715
CCCCCCCCC/C(=C\C1=C(C)C(=O)C(OC)=C(OC)C1=O)C(=O)O + CCN1C(=O)N(c2c(F)c(OC)cc(OC)c2F)Cc2cnc3[nH]c(CN4CCOCC4)cc3c21 [pemigatinib]	0.992
N=C(N)NC(=O)c1nc(Cl)c(N)nc1N [Amiloride HCl] + CCN1C(=O)N(c2c(F)c(OC)cc(OC)c2F)Cc2cnc3[nH]c(CN4CCOCC4)cc3c21 [pemigatinib]	0.967
CN(C)C(=O)COC(=O)Cc1ccc(OC(=O)c2ccc(NC(=N)N)cc2)cc1 [Camostat Mesilate] + CCN1C(=O)N(c2c(F)c(OC)cc(OC)c2F)Cc2cnc3[nH]c(CN4CCOCC4)cc3c21 [pemigatinib]	0.959
CC(C)C[C@@H]1NC(=O)[C@@H](C(C)C)NC(=O)[C@@H]2CCCN2C(=O)[C@@H](CC(=O)O)NC(=O)[C@@H](Cc2c[nH]c3ccccc23)NC1=O + CCN1C(=O)N(c2c(F)c(OC)cc(OC)c2F)Cc2cnc3[nH]c(CN4CCOCC4)cc3c21 [pemigatinib]	0.969
CCCCOc1c(C(=O)c2c(F)cc(C)cc2F)c[nH]c2nncc1-2 + CCN1C(=O)N(c2c(F)c(OC)cc(OC)c2F)Cc2cnc3[nH]c(CN4CCOCC4)cc3c21 [pemigatinib]	0.881
Nc1ccccc1NC(=O)c1ccc(CNC(=O)OCc2cccnc2)cc1 [Entinostat (MS-275)] + CCN1C(=O)N(c2c(F)c(OC)cc(OC)c2F)Cc2cnc3[nH]c(CN4CCOCC4)cc3c21 [pemigatinib]	0.982
CCc1cncnc1N1CCN(Cc2nc3ccc(C(F)(F)F)cc3[nH]2)CC1 + CCN1C(=O)N(c2c(F)c(OC)cc(OC)c2F)Cc2cnc3[nH]c(CN4CCOCC4)cc3c21 [pemigatinib]	1.05
COc1cc(C(=O)NS(=O)(=O)c2ccccc2C)ccc1Cc1cn(C)c2ccc(NC(=O)OC3CCCC3)cc12 [Zafirlukast] + CCN1C(=O)N(c2c(F)c(OC)cc(OC)c2F)Cc2cnc3[nH]c(CN4CCOCC4)cc3c21 [pemigatinib]	1.03
CN[C@H]1CN(c2ccc3c(=O)c(C(=O)O)cn(-c4nccs4)c3n2)C[C@@H]1OC [Voreloxin (SNS-595)] + CCN1C(=O)N(c2c(F)c(OC)cc(OC)c2F)Cc2cnc3[nH]c(CN4CCOCC4)cc3c21 [pemigatinib]	0.652
Cc1cc(C2CCCCC2)n(O)c(=O)c1 [Ciclopirox] + CCN1C(=O)N(c2c(F)c(OC)cc(OC)c2F)Cc2cnc3[nH]c(CN4CCOCC4)cc3c21 [pemigatinib]	0.554
Cc1cc(C2CCCCC2)n(O)c(=O)c1 [Ciclopirox ethanolamine] + CCN1C(=O)N(c2c(F)c(OC)cc(OC)c2F)Cc2cnc3[nH]c(CN4CCOCC4)cc3c21 [pemigatinib]	0.339
CC1=C(C(=O)OC(C)C)C(c2cccc([N+](=O)[O-])c2)C(C(=O)OC2CN(C(c3ccccc3)c3ccccc3)C2)=C(N)N1 (stereo unspecified) [Azelnidipine] + CCN1C(=O)N(c2c(F)c(OC)cc(OC)c2F)Cc2cnc3[nH]c(CN4CCOCC4)cc3c21 [pemigatinib]	0.996
CCOc1cc([C@@H](CS(C)(=O)=O)N2C(=O)c3cccc(NC(C)=O)c3C2=O)ccc1OC + CCN1C(=O)N(c2c(F)c(OC)cc(OC)c2F)Cc2cnc3[nH]c(CN4CCOCC4)cc3c21 [pemigatinib]	0.956
